Measured values: PubChem BioAssay AID743262 (National Center for Advancing Translational Sciences (NCATS), 2014)
The whole screen tested about 1,300 compounds, of which about 25 (2%) were called active. Roughly 9% stayed inconclusive and do not appear here. The call rests on the fitted dose curve; in most records, active means well fitted activation curve with a large enough effect; inconclusive means small, poorly fitted or top-dose-only effect; inactive means flat fitted curve, though single readings scatter. The list shows a part of the results.

Target: Glucagon-like peptide 1 receptor (Homo sapiens) (UniProt P43220)
Assay: qHTS of GLP-1 Receptor Agonists: Hit Validation; on activation: % of control where 0% means no effect
Details: HEK293 GLP-1R, cAMP-response luciferase, 4-6 h; series mostly up to 46.1 µM; activation: at the top concentration
In short: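 Stably transfected HEK293 cells co-expressing GLP-1R and a cAMP-responsive luciferase reporter, plated 12 h before compound. Compound exposure 4-6 hr at 37 deg C, 5% CO2; luciferase luminescence read after 12 min detection at RT.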
Potency means the concentration at half of the fitted maximal effect.

Sequence of UniProt P43220 (P43220 whole entry, looked up): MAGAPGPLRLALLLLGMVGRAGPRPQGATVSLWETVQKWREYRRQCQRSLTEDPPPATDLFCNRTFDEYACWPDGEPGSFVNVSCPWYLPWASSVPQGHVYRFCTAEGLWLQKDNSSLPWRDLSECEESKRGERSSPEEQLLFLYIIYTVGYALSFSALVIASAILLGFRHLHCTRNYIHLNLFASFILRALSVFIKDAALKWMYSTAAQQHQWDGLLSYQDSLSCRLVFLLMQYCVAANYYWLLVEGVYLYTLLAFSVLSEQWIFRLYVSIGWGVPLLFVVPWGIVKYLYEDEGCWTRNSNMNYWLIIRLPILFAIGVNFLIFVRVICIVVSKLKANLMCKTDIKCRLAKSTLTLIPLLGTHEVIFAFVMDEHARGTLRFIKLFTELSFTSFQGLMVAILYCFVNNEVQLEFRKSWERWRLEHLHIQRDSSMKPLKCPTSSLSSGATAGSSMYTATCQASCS

Row | SMILES | activation | Potency
1 | O=C(CSCc1ccccc1F)NCc1ccc(F)cc1 | inactive: -0.427% | –
2 | O=C(COc1cccc([N+](=O)[O-])c1)N/N=C/c1ccco1 | inactive: -0.398% | –
3 | CN(C)S(=O)(=O)N1CCN(S(=O)(=O)N(C)C)CC1 | inactive: -0.605% | –
4 | Cc1c(NC(=O)C(C)OC(=O)c2c3c(nc4ccccc24)CCC3)c(=O)n(-c2ccccc2)n1C (stereo not given) | inactive: -0.292% | –
5 | COc1ccc(/C=N/NC(=O)Cc2ccc(Cl)cc2)cc1OC | inactive: 9.44% | –
6 | Cc1nc(SCc2nc3ccccc3[nH]2)c2oc3cc(Br)ccc3c2n1 | inactive: 15.9% | –
7 | CCCCCCNc1cc2n(c(=O)n1)CCc1cc(OC)c(OC)cc1-2 | inactive: 27.4% | –
8 | COCCN(Cc1ccccc1)C(=O)c1cc(-c2ccc(OC)c(OC)c2)nc2ccccc12 | inactive: 23.1% | –
9 | CCOc1ccc(NC(=O)CCSc2nc(-c3ccc4c(c3)OCO4)cc(C(F)(F)F)n2)cc1 | inactive: 0.299% | –
10 | CCCCC(=O)Nc1ccc2oc(-c3cccnc3)nc2c1 | inactive: 2.85% | –
11 | COc1ccc(-n2c(SCc3cn4c(C)cccc4n3)nc3ccccc3c2=O)cc1OC | inactive: 22.2% | –
12 | COc1ccccc1-c1nnc(SCC(=O)OC(C)C)o1 | inactive: 2.17% | –
13 | CN(C)S(=O)(=O)c1ccc(Cl)c(NC(=O)CN2CCC(Cc3ccccc3)CC2)c1 | inactive: 3.45% | –
14 | CC(=O)c1ccsc1-c1c(C)cc2oc(=O)cc(-c3ccccc3)c2c1C | inactive: 14.2% | –
15 | Cn1ncc2c(Nc3ccccc3Cl)nc(Nc3ccccc3Cl)nc21 | inactive: 25.8% | –
16 | CC(=O)C(C)Oc1ccc2c3c(c(=O)oc2c1C)CCCC3 (stereo not given) | inactive: 15.1% | –
17 | CNS(=O)(=O)c1cc(NC(=O)c2cccc3cccnc23)ccc1C | inactive: 12.5% | –
18 | O=C1Nc2ccccc2C1Cc1ccccc1 (stereo not given) | inactive: 0.138% | –
19 | CS(=O)(=O)c1ccc(-c2cnc3c(NC=O)cc(-c4ccsc4)cn23)cc1 | inactive: 19.9% | –
20 | O=C(c1ccc2c(c1)OCO2)N1CCCC(c2ccccc2)C1 (stereo not given) | inactive: -0.314% | –
21 | CCSC1=NCCN1S(=O)(=O)c1ccc(F)cc1 | inactive: 0.197% | –
22 | Fc1ccccc1Nc1nc2ccccc2n2nnnc12 | inactive: 8.47% | –
23 | C=CCn1c(SCC(C)=O)nc2scc(-c3ccco3)c2c1=O | inactive: 11.1% | –
24 | CC(=O)Nc1ccc(S(=O)(=O)N2CCN=C2SCc2ccc(C)cc2)cc1 | inactive: 3.56% | –
25 | CCOC(=O)c1cnc(-n2nc(C)cc2C)nc1-n1nc(C)cc1C | inactive: 1.77% | –
26 | Cc1nc(Cl)cc(N/N=C/c2ccc(O)cc2O)n1 | inactive: 13.5% | –
27 | COc1ccc(C(C)(O)c2nc(-c3ccc(OC)c(OC)c3)cs2)cc1 (stereo not given) | inactive: 12.4% | –
28 | N#Cc1cc2c(nc1SCc1cccnc1)CCCCC2 | inactive: 17.2% | –

Row | SMILES | activation | Potency
29 | COCCCNC(=S)N/N=C/c1ccc2ccccc2c1 | inactive: 2.83% | –
30 | O=C(OCc1cc2ccccc2[nH]c1=O)C1CCCCC1 | inactive: -0.361% | –
31 | CC(=O)Oc1ccccc1-c1nc(C)nc(N(C)C(C)=O)n1 | inactive: 4.28% | –
32 | CCOC(=O)c1c(C)[nH]c2cc(Br)c(O)cc12 | inactive: 11.9% | –
33 | Cc1ccc(C(=O)NCC(C)NC(=O)c2ccc(C)c([N+](=O)[O-])c2)cc1[N+](=O)[O-] (stereo not given) | inactive: -0.417% | –
34 | CCOc1ccccc1NC(=O)Cn1cnc2onc(-c3ccc(F)cc3)c2c1=O | inactive: 2.73% | –
35 | COc1ccc(/C(C)=N/NC(=O)c2ccc(CSc3cccc4cccnc34)cc2)cc1OC | inactive: 9.56% | –
36 | Cc1cc(C)n(CCOC(=O)c2sc3ccccc3c2Cl)n1 | inactive: 5.74% | –
37 | COc1ccc(C(C)=O)cc1Cn1nc(C)c([N+](=O)[O-])c1C | inactive: -0.438% | –
38 | C#CCNc1nc(C(C)C)nc2c1nnn2Cc1ccccc1F | inactive: 5.93% | –
39 | S=c1nc(C2CCCCC2)[nH]c2ccccc12 | inactive: 2.94% | –
40 | Cc1cc(=O)oc2c3c(cc(OCC(=O)NC(C)C)c12)OC(C)(C)CC3 | inactive: 6.85% | –
41 | CCOC(=O)c1c(C)nn(-c2ccc(NC(=O)/C=C/C(=O)O)cc2)c1C | inactive: -0.357% | –
42 | COc1ccc(-c2cnc3c(NC=O)cc(-c4ccccc4OC)cn23)cc1OC | – | active: 8.2 µM
43 | CCOc1ccc(-c2nnc(NC(=O)COc3ccccc3F)o2)cc1 | inactive: -1.49% | –
44 | Cc1ccc(Sc2ncccc2C(=O)NC2CCCCCC2)cc1C | inactive: 3.52% | –
45 | O=C(CCl)Nc1nc(-c2ccco2)c(-c2ccco2)s1 | inactive: 3.03% | –
46 | COC(=O)c1cc(CSc2nnc(NC3CCCCC3)s2)oc1C | inactive: 2.1% | –
47 | CCOC(=O)c1cnc2c(c(C)nn2CC)c1NC1CC1 | inactive: 13.8% | –
48 | CC(C)Nc1nc(Cl)nc(NCCOc2ccccc2)n1 | inactive: 2.8% | –
49 | CC(=NNC(=S)Nc1ccc(C)cc1)c1ccccn1 | inactive: 24.4% | –
50 | c1ccc(CN2CCN(c3cnc4ccccc4n3)CC2)cc1 | inactive: 0.112% | –
51 | CCN(CC)c1ncnc2c1cnn2Cc1ccc(C)cc1 | inactive: 17.3% | –
52 | COC(=O)c1ccc(COC(=O)c2ccc(C)c(S(=O)(=O)N3CCCCC3)c2)cc1 | inactive: 0.484% | –
53 | CN(C)NC(=S)NC1(C)CCS(=O)(=O)C1 (stereo not given) | inactive: 0.271% | –
54 | Cc1cccc(C(=O)N2CCC[C@H]2C(=O)N2CCC[C@H]2C(=O)NCc2ccncc2)c1 | inactive: -0.462% | –
55 | Brc1ccc(OCCCOc2cccc3cccnc23)cc1 | inactive: 2.52% | –
